These results are taken from PubChem BioAssay AID360 (National Center for Advancing Translational Sciences (NCATS), 2006).

Screen size: about 48,000 compounds; about 550 (1.1%) were called active. About 4% were inconclusive and are not listed. Cut-off read from the data, not from the text of the source: active = potency below about 15 µM; inconclusive = mostly about 16 µM to 33 µM; inactive = weaker than that. Some of the results follow.
Potency is the fitted concentration of half-maximal effect.

The experiment addresses Lysosomal acid glucosylceramidase (Homo sapiens) (UniProt P04062). The experiment can be described thus: Glucocerebrosidase.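 Note: the screen sought inhibitors.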 The conditions noted are these: purified enzyme, resorufin glucoside fluorescence (screen aimed at inhibitors), 20 min. Put shortly: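 Wild-type enzyme at 0.2 nM final in 50mM citric acid/KH2PO4, 10mM sodium taurocholate, 0.01% tween-20, pH 5.9, with resorufin beta-D-glucopyranoside at 30 uM final. Compounds titrated, 20 min at RT, red fluorescence read; AC50 from titration.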
Chain of UniProt P04062 (P04062 whole entry, looked up): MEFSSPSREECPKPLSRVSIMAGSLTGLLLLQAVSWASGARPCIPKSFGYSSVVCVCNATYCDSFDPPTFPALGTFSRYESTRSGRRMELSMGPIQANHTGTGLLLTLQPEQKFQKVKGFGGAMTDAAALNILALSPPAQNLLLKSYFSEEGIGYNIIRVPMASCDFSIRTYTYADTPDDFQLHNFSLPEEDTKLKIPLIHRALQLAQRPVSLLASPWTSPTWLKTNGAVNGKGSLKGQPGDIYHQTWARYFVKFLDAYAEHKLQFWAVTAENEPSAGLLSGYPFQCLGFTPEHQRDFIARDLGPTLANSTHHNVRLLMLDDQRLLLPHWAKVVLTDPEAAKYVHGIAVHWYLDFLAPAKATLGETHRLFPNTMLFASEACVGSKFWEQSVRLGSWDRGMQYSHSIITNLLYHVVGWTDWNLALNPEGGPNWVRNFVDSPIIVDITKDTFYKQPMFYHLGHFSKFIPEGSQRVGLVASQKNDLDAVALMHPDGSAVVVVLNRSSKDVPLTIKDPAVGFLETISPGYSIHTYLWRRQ
Regarding `COc1cccc(C(=O)CN2C3=NCCCN3c3ccccc32)c1`, the Potency was inactive: > 76.9 µM.
As for `CC(C)OCCCNC(=O)CN1CCN(Cc2ccccc2Cl)C1=O`, the Potency was inactive: > 76.9 µM.
To `CC(=O)c1ccc(-n2nnnc2SCC(=O)N2CCc3ccccc3C2)cc1` belongs inactive: > 76.9 µM; to `Cc1cc(N2CCOCC2)nc2ccc(NC(=O)CCC(=O)N3CCC(C)CC3)cc12`, active: 1.68 µM; to `N#CC1=C(N)N(c2ccccc2Sc2ccccc2)C(=O)C1`, inactive: > 76.9 µM.
With `CCc1nnc(NC(=O)C2CCN(C(=O)NC3CCCCC3)CC2)s1`, the Potency was inactive: > 76.9 µM.
The result for `O=C(O)c1ccc2c(c1)C(=O)N(CCC1=CCCCC1)C2=O` reads inactive: > 76.9 µM.
With `Cn1c(CNc2nc3ccccc3n2CCN2CCCCC2)nc2ccccc21`, the Potency was inactive: > 76.9 µM.
As for `O=c1c2ccccc2c(/C=N/n2cnnc2)c(O)n1-c1ccccc1F`, the Potency was inactive: > 76.9 µM.
To `CCOC(=O)N1CCN(c2ncnc3c2oc2nc(C(C)C)c4c(c23)CCC4)CC1` belongs inactive: > 76.9 µM; to `COc1cccc(C(=O)NC2CC3CCCC(C2)N3CC(=O)Nc2ccc(N(C)C)cc2)c1` (stereo not drawn), inactive: > 76.9 µM; to `CCCn1c2c(c(O)c(C(=O)Nc3ncccc3C)c1=O)CCCC2`, inactive: > 76.9 µM.
To `CC1CCN(Cc2nc3c(c(=O)n(C)c(=O)n3C)n2Cc2c(F)cccc2Cl)CC1` belongs inactive: > 76.9 µM; to `C[C@H](NC(=O)OC(C)(C)C)c1nnc(SCC(=O)c2ccc(Cl)cc2)o1`, inactive: > 76.9 µM.
Take `Cc1ccc(CCSCC(=O)O)cn1`: the Potency was inactive: > 76.9 µM.
To `O=C1CCCC(=NCc2ccco2)C1` belongs inactive: > 76.9 µM; to `CCCCCOC(=O)C1C2C=CC3(CN(c4ccccc4C)C(=O)C13)O2` (stereo not drawn), inactive: > 76.9 µM; to `Cc1c(NC(=O)CSc2nc3c(cnn3-c3ccccc3)c(=O)[nH]2)c(=O)n(-c2ccccc2)n1C`, inactive: > 76.9 µM.
To `C=CCNC(=O)C1CCN(S(C)(=O)=O)CC1` belongs inactive: > 76.9 µM; to `COc1ccc(C2C(C(=O)N3CC(C)CC(C)C3)c3ccccc3C(=O)N2C)cc1` (stereo not drawn), inactive: > 76.9 µM; to `NC(=O)COC(=O)CCCc1c[nH]c2ccccc12`, inactive: > 76.9 µM.
The result for `CCN1C(=O)CS/C1=C(\C#N)S(=O)(=O)c1ccccc1` reads inactive: > 76.9 µM.
Take `COc1ccc(NC(=O)c2ccc(N(C)S(C)(=O)=O)cc2)cc1OC`: the Potency is inactive: > 76.9 µM.
The result for `O=C(NCCc1ccco1)c1nn(Cc2ccccc2)c(=O)c2ccccc12` reads inactive: > 76.9 µM; that for `Cn1nnnc1SCCNCc1cccnc1`, inactive: > 76.9 µM.
The result for `O=C(NC1CCCC1)c1ccc(COCC(F)(F)F)o1` reads inactive: > 76.9 µM; that for `Cc1c(NC(=O)c2ccc(COc3ccc4ccccc4c3)o2)c(=O)n(-c2ccccc2)n1C`, inactive: > 76.9 µM.
Turning to `Cc1ccc(S(=O)(=O)c2nc(-c3ccc(F)cc3)oc2SCC(=O)NCC2CCCO2)cc1` (stereo not drawn), the Potency is inactive: > 76.9 µM.
To `O=C1C2CC=CCC2C(=O)N1CC1CCCO1` (stereo not drawn) belongs inactive: > 76.9 µM; to `CS(=O)(=O)c1ccc2nc(NC(=O)C3COc4ccccc4O3)sc2c1` (stereo not drawn), inactive: > 76.9 µM.
To `Cn1c(N)c(S(=O)(=O)c2ccc(Br)cc2)c2nc3ccccc3nc21` belongs inactive: > 76.9 µM; to `Cn1c(=O)c2c(nc(NCC3CCCO3)n2C)n(C)c1=O` (stereo not drawn), inactive: > 76.9 µM.
The result for `CCC(=O)Nc1c(-c2cccs2)c(=O)c2ccccc2n1C` reads inactive: > 76.9 µM; that for `Oc1ccccc1-c1nc(N2CCN(Cc3ccccc3)CC2)c2ccccc2n1`, inactive: > 76.9 µM.
As for `CCN1CCN(C(=O)C(C)N(c2ccc(C)cc2)S(C)(=O)=O)CC1` (stereo not drawn), the Potency was inactive: > 76.9 µM.
As for `O=S(=O)(c1ccccc1)N1C2CCC1CC(O)(c1cccnc1)C2` (stereo not drawn), the Potency is inactive: > 76.9 µM.
Take `CCOC(=O)c1cccc(Nc2nc(C)cc(C)n2)c1`: the Potency is inactive: > 76.9 µM.
The result for `CCN(CC)CCCN1C(=O)C(O)=C(C(=O)c2sc(C)nc2C)C1c1ccco1` (stereo not drawn) reads inactive: > 76.9 µM; that for `CCn1c(C)nc2cc(-c3nnc(-c4c(-c5ccccc5)noc4C)o3)ccc21`, inactive: > 76.9 µM; that for `COc1ccc(N2CCN(C(=O)CN(c3ccccc3)S(C)(=O)=O)CC2)cc1`, inactive: > 76.9 µM.
The result for `Cc1ccnn2c(-c3ccccc3)c3c(=O)n(C)c(=O)n(C)c3c12` reads inactive: > 76.9 µM; that for `COc1cccc(C2=NOC(C(=O)NC(C)C)C2)c1` (stereo not drawn), inactive: > 76.9 µM; that for `O=C(CSc1nccc(=O)[nH]1)Nc1ccc(Br)c(Cl)c1`, inactive: > 76.9 µM.
To `Cc1ccc(-n2ncc3c(=O)n(CC#N)cnc32)cc1` belongs inactive: > 76.9 µM; to `C=CCn1c(-c2cc(OC)cc(OC)c2)n[nH]c1=S`, inactive: > 76.9 µM.
With `CN1C(=O)c2ccccc2C(C(=O)O)C1c1cccc(F)c1` (stereo not drawn), the Potency was inactive: > 76.9 µM.
The result for `COC(=O)c1[nH]c2ccccc2c1NC(=O)CCN1CCSCC1` reads inactive: > 76.9 µM; that for `CC1(C)Cc2c(sc3nc(-c4cccs4)n(N)c(=O)c23)CO1`, inactive: > 76.9 µM.
To `Nc1cc(C2CCCC2)nn1-c1ccccc1` belongs inactive: > 76.9 µM.
The result for `O=C(CSc1nc2ncccc2[nH]1)c1ccc(F)cc1` reads inactive: > 76.9 µM; that for `Cc1ccc(Nc2cc(C)nn2-c2nc(C)cc(=O)[nH]2)cc1`, inactive: > 76.9 µM; that for `Cc1ccc(S(=O)(=O)N2CCOCC2)cc1C(=O)NCc1ccc(F)cc1`, inactive: > 76.9 µM.
As to `CC12C(=O)N(c3nccs3)C(=O)C1C1C=CC2C1` (stereo not drawn), the Potency was inactive: > 76.9 µM.
The result for `O=C(OCc1nc2ccccc2s1)c1ccc(Br)s1` reads inactive: > 76.9 µM; that for `O=P1(Nn2cnnc2)C=C(c2ccccc2)OC(c2ccccc2)=C1`, inactive: > 76.9 µM; that for `O=C(O)CCCC(=O)NCCc1cccc(Cl)c1`, inactive: > 76.9 µM.
The result for `COc1ccc2c(c1)C(C)=CC(C)(C)N2C(=O)CNCc1ccc2c(c1)OCO2` reads inactive: > 76.9 µM.
In the case of `C=CCOC(=O)C1=C(C)NC2(O)c3ccccc3C(=O)C12O` (stereo not drawn), the Potency was inactive: > 76.9 µM.
